# In PMC4336329 (PLoS ONE, 2015):
# Out of some 310,000 compounds screened, about 14,000 (4.5%) showed an effect of 50% or more. The effect is printed as a negative number. Some of the results follow.
# Target: human ether-à-go-go-related gene (hERG) potassium channel (human, UniProt Q12809)
# Assay: primary screen, population patch clamp on CHO cells stably expressing hERG
# 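Further: peak tail current of the secondary pulse compared with the same well before compound.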
# Chain of human ether-à-go-go-related gene (hERG) potassium channel (Q12809 whole entry, looked up): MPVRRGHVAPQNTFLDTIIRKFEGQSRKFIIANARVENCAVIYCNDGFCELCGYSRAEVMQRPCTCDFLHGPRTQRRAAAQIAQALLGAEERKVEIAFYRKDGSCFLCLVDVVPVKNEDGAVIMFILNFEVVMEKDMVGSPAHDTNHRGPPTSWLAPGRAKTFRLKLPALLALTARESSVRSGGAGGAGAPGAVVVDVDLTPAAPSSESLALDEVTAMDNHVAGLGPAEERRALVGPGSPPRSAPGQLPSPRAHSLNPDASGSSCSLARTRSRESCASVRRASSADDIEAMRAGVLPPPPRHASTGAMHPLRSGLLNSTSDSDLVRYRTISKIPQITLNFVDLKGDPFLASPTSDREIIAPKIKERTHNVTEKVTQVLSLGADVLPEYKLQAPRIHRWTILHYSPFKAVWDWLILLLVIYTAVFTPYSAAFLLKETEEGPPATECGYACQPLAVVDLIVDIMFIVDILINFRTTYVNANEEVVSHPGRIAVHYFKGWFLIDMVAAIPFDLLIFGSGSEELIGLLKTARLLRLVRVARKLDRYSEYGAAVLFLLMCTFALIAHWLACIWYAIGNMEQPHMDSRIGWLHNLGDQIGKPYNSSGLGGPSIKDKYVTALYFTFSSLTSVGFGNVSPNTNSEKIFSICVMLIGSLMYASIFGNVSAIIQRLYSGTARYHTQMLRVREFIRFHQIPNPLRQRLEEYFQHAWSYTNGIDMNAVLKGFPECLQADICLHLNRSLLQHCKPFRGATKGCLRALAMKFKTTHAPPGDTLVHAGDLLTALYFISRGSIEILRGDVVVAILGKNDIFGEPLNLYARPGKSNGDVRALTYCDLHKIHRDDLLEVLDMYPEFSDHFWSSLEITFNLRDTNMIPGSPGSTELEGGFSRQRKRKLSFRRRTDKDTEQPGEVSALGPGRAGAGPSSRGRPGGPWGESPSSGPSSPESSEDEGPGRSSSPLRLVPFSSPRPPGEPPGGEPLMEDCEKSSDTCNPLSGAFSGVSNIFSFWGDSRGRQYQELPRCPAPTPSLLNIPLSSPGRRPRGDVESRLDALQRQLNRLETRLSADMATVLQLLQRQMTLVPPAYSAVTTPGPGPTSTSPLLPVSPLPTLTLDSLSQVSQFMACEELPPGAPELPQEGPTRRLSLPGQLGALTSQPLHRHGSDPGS
row,Compound,"hERG current change (%, negative = inhibition) at 10uM [%]"
1,COc1ccc(C(=O)CCC(=O)N2CCN(c3ccc(C)cc3)C(C)C2)cc1 (centres unmarked),16.5
2,O=C(CN1C(=O)COc2ccc(Cl)cc21)NCC1CCCO1 (centres unmarked),11.2
3,CC(=O)OC(c1nc2ccccc2c(=O)n1C1CC2(OC1=O)c1ccccc1N1C(=O)C(C)(C)N(O)C12)C(C)C (centres unmarked),-0.51
4,O=C1CSC(=Nc2ccc(F)cc2)N1,6.91
5,Cc1ccc2nc(SCC(=O)N3CCCC3)[nH]c2c1,3.8
6,CCC(C)n1nccc1NC(=O)C(C)Cl (centres unmarked),5.71
7,COc1cccc(C2NC(=O)N(CCCC(=O)O)C(C)=C2C(=O)OCc2ccccc2)c1 (centres unmarked),2.01
8,CC(=O)Nc1ccc(/C=C/c2nc(-c3ccccc3O)n[nH]2)cc1,13.3
9,Cn1c(N/N=C/c2cccs2)nc2c1c(=O)n(Cc1ccccc1)c(=O)n2C,-21.2
10,COc1cc(/C=C(/C#N)c2nc3ccccc3[nH]2)ccc1Oc1ncccc1[N+](=O)[O-],-12.5
11,Cc1ccc2c(c1)N(CC(=O)N1CCCCC1C)C(=O)CO2 (centres unmarked),18.3
12,COc1ccc(C2C(C#N)=C(N)Oc3n[nH]c(C)c32)cc1CSc1ccccn1 (centres unmarked),-23.8
13,COc1ccc(/C=C2/SC(=S)NC2=O)cc1OCc1ccccc1,7.64
14,CCCCN(C)CCNC(=O)C1CCN(S(=O)(=O)c2cccc3nsnc23)CC1,-15.3
15,CCOC(=O)C1=C(N)OC2=C(C(=O)CCC2)C12C(=O)N(C)c1ccccc12 (centres unmarked),8.11
16,CCOC(=O)C1CCN(C(=O)c2cc3cc(Br)ccc3oc2=O)CC1,-11
17,Cc1cc(C(=O)N/N=C/c2cc(Cl)cc([N+](=O)[O-])c2O)n[nH]1,-13.7
18,Cc1nc2ccccc2n1C1CCN(CC(=O)Nc2ccccc2Br)CC1,-25
19,C/C=C/c1cc(CN2CCN(c3ccccc3)CC2)c(O)c(OC)c1,-32
20,CCOC(=O)C1=C(O)/C(=C/c2ccc(OCC(=O)O)c(OC)c2)SC1=Nc1ccc(OC)cc1,-41.5
21,O=C(NC1CCCC1)C1CC(O)CN1C(=O)Nc1ccccc1 (centres unmarked),5.02
22,CCOC(=O)c1cc2c(=O)n3ccccc3nc2n(CCOC)c1=NC(=O)c1c(-c2c(F)cccc2Cl)noc1C,2
23,CCOC(=O)C1=C(C)NC(=O)NC1c1cccc(O)c1 (centres unmarked),23.5

row,Compound,"hERG current change (%, negative = inhibition) at 10uM [%]"
1,CN(C(=O)COC(=O)c1ccc2[nH]c3c(c2c1)CCCC3)C1CCS(=O)(=O)C1 (centres unmarked),-11.1
2,Cn1c2ccccc2c2nnc(SCC(=O)NC3CCCC3)nc21,2.81
3,O=C(c1noc2c1CCCC2)N1CCCC(N2CCN(c3ccccc3F)CC2)C1 (centres unmarked),-28
4,O=C(Nc1ccc(OC(F)(F)F)cc1)N1CCN(c2ccnc3cc(Cl)ccc23)CC1,-72.1
5,CC(C)(C)[C@H]1C=C(C(=O)N2CCN(Cc3ccccc3)CC2)O[C@@H](OCCCCO)C1,-22.2
6,CCN(CC)CC(O)CN(c1ccccc1)S(=O)(=O)c1ccc2ccccc2c1.Cl (centres unmarked),-80.2
7,COc1ccc(CCNC(=O)C(=O)NCC2OCCN2S(=O)(=O)c2cccs2)cc1OC (centres unmarked),-16.5
8,O=C1NN(c2ccccc2)C(=O)C2C1C1C=CC2C12CC2 (centres unmarked),-1.38
9,CCC(=O)Nc1ccc(S(=O)(=O)NCc2ccco2)cc1,-3.34
10,O=c1c2cc(Br)ccc2[nH]c(=S)n1Cc1cccnc1,6.8
11,COc1ccc(CN2CCN(C(=O)c3ccc4nc(N5CCOCC5)sc4c3)CC2)c(OC)c1OC,-5.71
12,COc1ccc(Cc2nc(-c3cccc(C)c3)no2)cc1,-9.01
13,CCC(Sc1nc2sc(C(=O)OC)c(C)c2c(=O)n1N)C(=O)NCC1CCCO1 (centres unmarked),-28.4
14,COC(=O)COc1ccc(S(=O)(=O)Nc2ccccc2C(=O)OC)cc1,1.81
15,CC(C)(C)c1ccc(C(CC(=O)O)NC(=O)Cc2ccc(Cl)cc2)cc1 (centres unmarked),20.6
16,O=C(COC(=O)COc1ccccc1F)NCCc1ccc(F)cc1,8.05
17,O=C(COC(=O)C1=COCCO1)Nc1ccccc1,26.1
18,O=C(COc1ccccc1[N+](=O)[O-])Nc1cccc(Cl)c1N1CCOCC1,-30
19,CCOCCCNc1ccc(-c2ccccc2)nn1,-1.64
20,CCCCOc1ccc(-c2cc(C(=O)NNC(=S)NCC)c3ccccc3n2)cc1,7.75
21,N#CCO/N=C(\c1ccccc1)c1ccncc1,18.1
22,O=C(O)/C(=C\c1ccc(Br)cc1)c1ccc(S(=O)(=O)N2CCCCC2)s1,9.39
23,CCOc1ccc(C(=O)NCc2ccncc2)cc1,15.6

row,Compound,"hERG current change (%, negative = inhibition) at 10uM [%]"
1,Cc1ccc(S(=O)(=O)C2(C(=O)Nc3ccc(F)cc3)CC2)cc1,-14.8
2,C/C(N)=C(/C#N)C(=O)COC(=O)c1ccccc1C(=O)c1ccc(C)cc1,-12
3,COc1cccc(OC)c1OCC(O)CN1CCN(c2ccccc2)CC1.Cl (centres unmarked),-33.3
4,CCC(NC(=O)c1cc(COc2cncc(Cl)c2)on1)c1ccncc1 (centres unmarked),8.75
5,CCCC(=O)Nc1cccc(-c2nc3ccccc3o2)c1,2.05
6,CCC(=O)c1cn(Cc2ccccc2)c2ccccc12,-7.05
7,C=CCn1c(NC(=O)c2ccco2)nc2ccccc21,5.56
8,CC(=O)N1N=C(c2ccc(C)o2)CC1c1cccc(F)c1 (centres unmarked),18.1
9,Cc1cnc(NC(=O)C(C)N2CCN(C)CC2)s1.O=C(O)C(=O)O (centres unmarked),20.7
10,COc1ccccc1NC(=O)CN1CCN(C2c3ccccc3-c3ccccc32)CC1,2.41
11,O=C(Nc1ccccc1F)c1cccc(C(=O)Nc2ccccc2F)c1,1.08
12,O=C(N/C(=C/c1ccco1)C(=O)N1CCCCC1)c1cccs1,-17.4
13,Cc1cccc(OCC(=O)Nc2ccc3c(C)cc(=O)oc3c2)c1,1.59
14,C=CCn1c(SCC(=O)Nc2ccc(F)cc2F)nc2c([nH]c3ccccc32)c1=O,-3.79
15,CN(C(=O)COC(=O)CNC(=O)C1CCCCC1)c1ccccc1,-1.31
16,C=CCSc1nc2c(c(-c3ccsc3)c1C#N)CN(C)CC2,-65.2
17,Cc1csc(=O)n1CCC(=O)OCC(=O)N(CC(C)C)c1c(N)n(Cc2ccccc2)c(=O)[nH]c1=O,0.214
18,CCN(CC(=O)Nc1c(F)cccc1F)C(=O)CCc1nc2cc(S(=O)(=O)N3CCOCC3)ccc2n1C,14.1
19,CC/C(=N\NC(N)=O)c1c(O)[nH]c(=O)[nH]c1=O,20.1
20,O=C(Cn1cnc2c(cnn2-c2ccccc2)c1=O)N1CCCc2ccccc21,-25.1
21,CCc1ccc(OCC(=O)NNC(=S)NC(=O)C2CC2)c(Br)c1,7.59
22,Brc1ccc(CNCc2cccs2)cc1,-55.1
23,CN(Cc1ccccc1)c1nc(N)c([N+](=O)[O-])c(NCc2ccccc2)n1,10

row,Compound,"hERG current change (%, negative = inhibition) at 10uM [%]"
1,O=c1c(-c2ccnn2-c2ccc(F)cc2)cnc2n1CCS2,19.9
2,CC1CN(C(=S)SCC(=O)c2ccc([N+](=O)[O-])cc2)CC(C)O1 (centres unmarked),-7.38
3,Cc1ccc(S(=O)(=O)N2CCC(C(=O)OCc3ccccc3)CC2)cc1C,5.96
4,CCOc1ccc(N(CC(=O)Nc2ccccc2OC)S(C)(=O)=O)cc1,-19.1
5,Fc1ccccc1NC(=S)N1CCC(c2ccccc2)C1 (centres unmarked),13.8
6,CCn1c2ccccc2c2cc(NC(=O)COc3ccccc3)ccc21,5.64
7,CCc1nnc(NC(=O)CSc2nc(-c3ccccc3)nc3ccccc23)s1,16.3
8,O=C(NC(=S)N1CCN(Cc2ccccc2)CC1)c1cccnc1,14.2
9,CCC(=O)NCc1csc(-c2cccs2)n1,8.79
10,O=C(NCc1cccc(F)c1)C1CCN(S(=O)(=O)Cc2ccccc2)CC1,7.89
11,O=C(NC(=O)c1ccccc1Cl)Nc1ccc(-c2cnco2)cc1,14.4
12,COC(=O)Cn1c(=NC(=O)c2cc(OC)c(OC)c(OC)c2)sc2cc(OC)ccc21,1.18
13,Cc1ccc(-n2c3c(cc(C(=O)NCc4ccco4)c2=O)C(=O)CCC3)cc1,-53.8
14,CCc1ccc(C(=O)NCc2cnn(C)c2)s1,6.63
15,OC(c1ccccc1)C1CN(Cc2ccccc2)CCC1(O)c1ccccc1 (centres unmarked),-21.1
16,CN1C(=O)c2ccc(C(=O)Nc3ccc(Br)cn3)cc2C1=O,7.17
17,COc1ccc(Cl)cc1NC(=O)CC1CCCC1,13.3
18,Cl.O=C(NCCCn1ccnc1)c1ccc(N2CCCCCC2)c([N+](=O)[O-])c1,-64
19,CN(C)C(=O)CSCc1c(Cl)cccc1Cl,-9.95
20,O=C(Cn1ncc2c3ccccc3n(Cc3ccc(Cl)cc3)c2c1=O)NCCCN1CCCC1=O,-34.5
